Data reported in the supplement of paper PMC3334620.
The full ranking holds about 33,000 sequences; the median of “E-score (-0.5 to 0.5)” is about -0.035, and the highest 2% start at about 0.34. The list shows a part of the results.

target: T1, Mot3 (UniProt P54785); assay: PBM E-score (8-mer binding enrichment) (E-score (-0.5 to 0.5)); higher = stronger / more preferred TF binding; most listed sequences are background and not binding sites; settings: protein concentration: 200 nM; construct: GST-full length
T1 sequence: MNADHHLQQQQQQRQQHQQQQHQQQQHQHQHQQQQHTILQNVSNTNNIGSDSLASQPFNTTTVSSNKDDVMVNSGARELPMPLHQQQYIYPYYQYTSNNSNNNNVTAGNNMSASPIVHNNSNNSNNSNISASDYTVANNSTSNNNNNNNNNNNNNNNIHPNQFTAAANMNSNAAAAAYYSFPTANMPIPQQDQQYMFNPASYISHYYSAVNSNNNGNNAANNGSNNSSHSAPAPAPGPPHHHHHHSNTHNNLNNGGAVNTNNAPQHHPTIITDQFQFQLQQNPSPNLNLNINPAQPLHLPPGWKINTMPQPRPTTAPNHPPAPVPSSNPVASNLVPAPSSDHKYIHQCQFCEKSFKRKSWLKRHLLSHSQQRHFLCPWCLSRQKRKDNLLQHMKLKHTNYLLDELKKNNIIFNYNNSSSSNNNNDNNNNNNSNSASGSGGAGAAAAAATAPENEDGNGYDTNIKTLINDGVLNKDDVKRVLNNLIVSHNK
How it was run: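 Bound GST-tagged yeast transcription factors, applied at about 100-200 nM to double-stranded universal all-10-mer Agilent arrays, were detected with fluorescent anti-GST. Scans were normalised with masliner. A modified Wilcoxon-Mann-Whitney statistic, the E-score, was assigned to each ungapped eight-base word pooled with its reverse complement by the Universal PBM Analysis Suite.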

Row | Sequence | PBM E-score
1 | GTCCACGA | -0.38
2 | GTACTCGA | -0.00868
3 | CATATGAA | 0.0626
4 | GAGATCTA | -0.187
5 | TGTTACAA | 0.245
6 | ACAGGGAA | 0.0482
7 | AGCCCAGC | -0.249
8 | AATTGTAA | 0.114
9 | AAGAACCC | -0.116
10 | TAGACGAA | -0.00134
11 | GAGTGTCA | -0.0188
12 | AGAGTGCA | -0.156
13 | GGAGTGTA | 0.168
14 | ATTTACCC | -0.0152
15 | ACCATAAA | 0.00507
16 | CCCAATAC | 0.088
17 | CTTTGGTA | -0.179
18 | ATTAACAC | 0.384
19 | GCCCACCA | -0.345
20 | CCCAAGCG | -0.252
21 | AACTTGTA | 0.125
22 | CTTAAAGA | -0.0303
23 | CATAACAG | 0.0833
24 | AGGAACGG | 0.463
25 | AACTCGAG | -0.0327

Row | Sequence | PBM E-score
26 | GAAGGGAA | -0.213
27 | AAAGATCG | -0.0992
28 | CGTCTCAG | 0.0313
29 | CTTAATAC | 0.286
30 | ACCTCTCC | -0.144
31 | TAAGACTA | 0.00758
32 | GAGAATCC | -0.211
33 | GAATTTGA | -0.213
34 | CGATGATA | 0.0983
35 | CAGGGTCC | -0.0573
36 | ACGATGTA | 0.296
37 | CAGATTAC | 0.237
38 | ACAGTGGA | -0.0998
39 | CATAGCTC | -0.15
40 | CGAGCGTA | -0.0212
41 | CAGAAAGG | 0.0608
42 | TTACGCAA | 0.247
43 | AGTCACAG | 0.0494
44 | CCCCCGCA | -0.214
45 | GTACAGTA | 0.153
46 | AACAGTGA | -0.0719
47 | CAATACCC | -0.00184
48 | TCCGAAGA | -0.311
49 | CGCAATAG | -0.0539
50 | CGATGGCA | -0.0561

Row | Sequence | PBM E-score
51 | ACCGACGG | -0.00788
52 | AACGCATA | 0.166
53 | CTGTGTTC | 0.169
54 | TACGCTCA | -0.0141
55 | CGGAGAAC | -0.237
56 | CAGGGAAG | -0.137
57 | CTTCAATA | 0.207
58 | TGGCGAAA | -0.0484
59 | TAGCACAA | 0.0438
60 | GTGATAAA | -0.0985
61 | GCGTCCAA | -0.0842
62 | ACGTTTGG | -0.144
63 | ACACTGCA | -0.013
64 | ACCGGGGA | -0.27
65 | CTTCTTCC | -0.0601
66 | TGAGATCA | -0.0191
67 | AGCCAACC | -0.226
68 | AAGACGAC | -0.139
69 | CGAGTGCG | -0.257
70 | AGAGACTC | -0.221
71 | CTAGAGTC | -0.22
72 | GTGTAAAC | 0.387
73 | ATGTATCG | 0.279
74 | ATCAGGTG | -0.0867
75 | CTAAAGCA | -0.0303

Row | Sequence | PBM E-score
76 | AAGGCATC | 0.381
77 | CGGAAAAA | 0.0869
78 | AACTGTGG | 0.0771
79 | CCAATTCC | -0.0021
80 | ATTATCGC | -0.106
81 | AGGCAGGC | 0.317
82 | ATGGACAA | 0.0217
83 | AGGGTATG | -0.0136
84 | AATCAAAT | 0.0575
85 | ATTTAACA | 0.354
86 | AGAAAGGA | -0.0478
87 | ACCAGAAC | -0.0583
88 | ATACTCAT | 0.0941
89 | CGCGTCAG | -0.0638
90 | GAGAGGAA | -0.0987
91 | ATATCACG | -0.0148
92 | CGCATAAA | 0.0277
93 | CCTGATTC | -0.0437
94 | ATTAAGAC | 0.0551
95 | TGTACACA | 0.34
96 | ACCCCGGA | -0.0203
97 | GCACTCAA | 0.0611
98 | CCCCGGGG | -0.37
99 | GAAGCACA | -0.0308
100 | CAATCCCG | -0.0236

Row | Sequence | PBM E-score
101 | ATACCGTG | 0.0953
102 | ATTTCTAC | 0.189
103 | ACTACTTG | 0.0769
104 | AACTTAAC | 0.19
105 | GCACGTGA | 0.152
106 | CATTCAGA | -0.135
107 | ATCCGCTA | -0.188
108 | GCGTGTCC | 0.0864
109 | ACACATGT | 0.256
110 | CATTAACG | 0.189
111 | AAGAATCA | -0.0387
112 | ACCTGGGC | -0.268
113 | GGTTGAAC | -0.0209
114 | ACATAGAC | 0.112
115 | ACACATCC | 0.183
116 | GACTGCAA | -0.149
117 | CGCCCCGC | -0.114
118 | GGTGTTGA | 0.0387
119 | AAGGCAAT | 0.479
120 | ATAGCCTG | 0.133
121 | AAGCCCAG | -0.183
122 | AACGTACT | 0.142
123 | TCCAATAA | 0.0678
124 | AGCACCGA | -0.168
125 | ATACTGGA | -0.15

Row | Sequence | PBM E-score
126 | AAAAGGCA | 0.478
127 | AAAGTGCT | -0.175
128 | CTGACAAA | 0.162
129 | CAACCACA | -0.0496
130 | AAAGGATT | 0.0704
131 | CGTCCCGC | -0.207
132 | AACGTTCG | -0.0896
133 | ACTCGTGA | -0.0793
134 | ATGTGAGC | 0.0368
135 | TCAGGTCA | -0.159
136 | AAGCTTTG | -0.0872
137 | AAGATAGC | -0.0616
138 | GCATAAAA | 0.115
139 | AAGCACCT | 0.0273
140 | CCGGGTGA | -0.25
141 | AAGTGCGT | -0.0268
142 | CTCGGCAG | -0.0936
143 | ATATTGGC | -0.0257
144 | CACCTGCG | 0.0771
145 | AACAGAAT | 0.0192
146 | ACGGAGCG | -0.0608
147 | GTATTCAA | 0.151
148 | AACTTCCG | -0.091
149 | ATCCGCTG | -0.201
150 | ACCGTCCC | -0.187

Row | Sequence | PBM E-score
151 | CTTCTAGA | -0.181
152 | GAAAGAGA | 0.00602
153 | ATGCAGTA | 0.101
154 | ACTTTAAT | 0.0262
155 | ACTGAGAG | -0.0806
156 | AGCGATTG | -0.223
157 | TGCCAGAA | -0.0627
158 | GAGAAGAA | -0.083
159 | GTGGCATA | -0.119
160 | GGGTCTGA | -0.212
161 | CCTACATA | 0.205
162 | AGTCGAAA | -0.015
163 | AGGTTCTG | 0.0713
164 | TACTTGCA | 0.0506
165 | ACGGTACG | -0.0434
166 | ACTTCTAA | -0.121
167 | GCCCGTCC | -0.182
168 | CTAAATCA | -0.0576
169 | AGAAATAG | 0.082
170 | CATTTTGG | 0.0099
171 | GATACACA | 0.14
172 | CTCTCCGA | -0.0638
173 | ACACTGCT | -0.0116
174 | GTACCCGA | -0.143
175 | GGAACTCC | 0.052

Row | Sequence | PBM E-score
176 | ACTGGACT | -0.176
177 | CACCTCGG | -0.108
178 | TACATGAA | 0.375
179 | CACAGACG | -0.0437
180 | GTCCTGTA | 0.155
181 | GACATAAA | 0.165
182 | GTATCCTA | 0.0863
183 | AGGACATA | 0.0303
184 | GACAGTCA | -0.104
185 | TAGTTTCA | 0.025
186 | GTAAATAA | 0.277
187 | ATATGCCG | -0.0771
188 | AGTAGCTC | -0.0996
189 | CGTGACTC | -0.136
190 | GATATCCA | -0.0173
191 | ATCAAAAA | 0.0159
192 | CCCTCCAC | -0.13
193 | CAGCAGGG | -0.0212
194 | CGTCACAC | -0.139
195 | TTCTAGAA | -0.0416
196 | ACAACTGG | -0.229
197 | ACGGGTCC | -0.177
198 | ATTACCAG | -0.0076
199 | ACATCTCA | 0.131
200 | ACCGCGCG | -0.217

Row | Sequence | PBM E-score
201 | TATCCTGA | -0.0141
202 | ATAAGACG | -0.0189
203 | CAGACGGC | -0.224
204 | GCACAGGC | 0.323
205 | GACGTTGA | 0.0556
206 | AGCAGGCG | 0.148
207 | CGGGCCGC | -0.307
208 | AACATTAG | 0.115
209 | TACAAAAA | 0.196
210 | AGGAACAT | 0.422
211 | TATGAGAA | 0.0231
212 | AGAAACTA | -0.0831
213 | CTCAGCTA | -0.268
214 | ACGCATGA | 0.074
215 | TGAGCACA | 0.0359
216 | CAATTCAC | 0.202
217 | CCTCACGC | -0.00499
218 | ACGTACCT | 0.292
219 | CCCCGACA | -0.0337
